Out of some 390,000 compounds screened, about 930 (0.24%) were called active. Inconclusive results, whose numbers are uncertain, are shown with a selection of clear calls. Calls follow the shape of the dose curve; as a rule, active = well fitted activation curve with a large enough effect; inconclusive = small, poorly fitted or top-dose-only effect; inactive = no such curve, though single readings can be large or run the other way. Where the call is inconclusive, the potency comes from a doubtful curve fit.
Test: qHTS for Suppressors of FUS Proteinopathy: Primary screen using FUS-linked yeast assay; also: nearly all actives have a fitted effect of over 55% in size
Conditions: S. cerevisiae FUS-expressing, OD600, 24 h; Potency: growth rescue; series mostly up to 76.6 µM
Method in brief: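 Restored growth of FUS-toxic S. cerevisiae, read as 600 nm absorbance after 24 h at 30C in galactose medium (starting OD 0.005). Controls CP55940 and DMSO.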
Potency is read from the fitted curve at half-maximal effect; tags tell the direction and shape of the fitted curve.

SMILES | Potency
Cc1ccc(Cn2ccnc2SCC(=O)Nc2nc3ccccc3s2)cc1 | inconclusive: 50.1 µM [activator, single point]
CN(C(=O)c1cccc(NC(=O)Cc2cccc(NC(=O)C3CCN(S(=O)(=O)c4cccc([N+](=O)[O-])c4)CC3)c2)c1)C1CC1 | inconclusive: 20 µM [activator, single point]
Cc1ccc(-c2cnc3c(Nc4cccc(OC(F)(F)C(F)F)c4)nccn23)cc1 | inactive
Cc1cccc(NS(=O)(=O)c2ccc(C(=O)N3CC(C)OC(C)C3)cc2)c1C (stereo unspecified) | inconclusive: 8.91 µM [activator, partial curve, poor fit]
CCCC(C(=O)NCc1ccc(OC)cc1)N(Cc1ccco1)C(=O)c1snc(C(N)=O)c1N (stereo unspecified) | inconclusive: 50.1 µM [activator, single point]
COc1ccc(CCN(Cc2cccs2)S(=O)(=O)c2ccc(C)s2)cc1OC | inactive
O=C1Cc2cc(S(=O)(=O)NCc3ccccc3Cl)cc3c2N1CCC3 | inconclusive: 28.2 µM [activator, partial curve, poor fit]
O=C(Cc1c(Sc2ccccc2)c2ccccc2n1Cc1ccccc1)NCCO | inconclusive: 22.4 µM [activator, partial curve]
C/C(=N\Nc1c(F)c(F)c(Br)c(F)c1F)c1ccncc1 | inactive
O=C(c1ccc2c(c1)OCCO2)C1CCN(C(=O)c2ccc(F)c(F)c2)CC1 | inactive
CCCCn1c(N)c(N(CCC(C)C)C(=O)C2CC(=O)N(c3ccc4c(c3)OCCO4)C2)c(=O)[nH]c1=O (stereo unspecified) | inconclusive: 31.6 µM [activator, single point]
NC(=O)C1(N2CCCCC2)CCN(C(=O)Nc2ccc(F)cc2F)CC1 | inactive
COc1ccc(-n2nc(C(=O)NCC(=O)N3CCC(C)CC3)c3ccccc3c2=O)cc1Cl | inconclusive: 31.6 µM [activator, single point]
CCCCCNC(=O)C(c1ccc(OC)cc1)n1c(=O)c(-c2ccccc2)nc2ccccc21 (stereo unspecified) | inconclusive: 20 µM [activator, partial curve, poor fit]
Cc1ccc2oc(NC(=O)N3CCOCC3)cc(=O)c2c1 | inactive
Cc1ccc(/C(=N/Nc2nc3ccccc3s2)C2=C(O)c3ccccc3C2=O)cc1 | inactive
COc1ccc(-n2c(-c3ccc(Cl)cc3Cl)n[nH]c2=S)c(OC)c1 | inconclusive: 31.6 µM [activator, partial curve, poor fit]
Cc1cc2cc(C(c3nnnn3CC3CCCO3)N3CCCc4ccccc43)c(=O)[nH]c2cc1C (stereo unspecified) | inconclusive: 39.8 µM [activator, partial curve, poor fit]
COc1ccc(N2CCCN(CC(=O)Nc3ccc(Cl)c(Cl)c3)CC2)cc1 | inactive
Cc1nc(C(=O)NNC(=O)c2ccc(Cl)cc2)cs1 | inactive
CC(=O)N1CCc2cc(S(=O)(=O)NC(Cc3ccccc3)C(=O)NCc3ccc(C)cc3)ccc21 (stereo unspecified) | inconclusive: 35.5 µM [activator, single point]

SMILES | Potency
S=C(NCCc1ccccc1)Nc1cccc2cnccc12 | inactive
CC(C)CC1Nc2ncnc(N3CCN(c4ccccc4)CC3)c2N(Cc2ccc(Cl)cc2)C1=O (stereo unspecified) | inconclusive: 39.8 µM [activator, partial curve, poor fit]
CN(CC(=O)Nc1cccc(F)c1)C(=O)c1cccc(S(=O)(=O)N2CCN(c3ccc(F)cc3)CC2)c1 | inconclusive: 20 µM [activator, partial curve, poor fit]
COc1ccc(Nc2nc3cc(-c4sccc4C)sc3c(=O)n2C)cc1OC | inconclusive: 28.2 µM [activator, single point]
Cc1ccc2c(CN3CCN(C(=O)c4ccc(Br)cc4)CC3)cc(=O)oc2c1 | inactive
O=C(Cc1ccccc1)Nc1ccc(NC(=O)C2CC2)nc1 | inactive
CC(C)(C)N1C(=O)[C@H]2[C@@H](c3ccc(Br)cc3)N3C(=O)N(c4cccc(Br)c4)C(=O)[C@@]3(Cc3ccccc3)[C@H]2C1=O | active: 5.01 µM
COc1ccc(C(=O)/C=C/Nc2c(C)n(C)n(-c3ccccc3)c2=O)cc1OC | inconclusive: 44.7 µM [activator, single point]
CCOC(=O)Cn1c(=O)n(C2CCCCC2)c2nc(-c3ccc(C(C)C)cc3)nc(C(N)=O)c21 | inactive
CCC(C(=O)N1CCN(c2cc(C)ccc2C)CC1)n1nc(C)n2c(cc3occc32)c1=O (stereo unspecified) | inconclusive: 17.8 µM [activator, partial curve, poor fit]
CC(C)(C)c1ccc(-c2nnc(SCC(=O)Nc3ccc(Oc4ccccc4)cc3)n2Cc2ccco2)cc1 | inconclusive: 22.4 µM [activator, single point]
COc1cc(O)ccc1C(=O)CCc1ccc(O)cc1 | inactive
COc1ccc(CNC(=O)Cc2ccc(NC(=O)N3CCSc4ncccc43)cc2)cc1 | inactive
Cc1ccc([C@H]2C(C(=O)O)=CC[C@@H](c3ccc(C(C)C)cc3)N2S(=O)(=O)c2ccc(C)cc2)cc1 | inconclusive: 14.1 µM [activator, partial curve, poor fit]
Cc1ccc(C(=O)C(C)OC(=O)Cn2c(C)csc2=O)cc1 (stereo unspecified) | inactive
Cc1ccc(Cl)c(NC(=O)COC(=O)c2ccccc2C(=O)c2ccc(Cl)c([N+](=O)[O-])c2)c1Cl | inconclusive: 12.6 µM [activator, partial curve, poor fit]
Cc1cc(Cl)n2c(nc3cc(F)c(F)cc32)c1C#N | inconclusive: 35.5 µM [activator, partial curve, poor fit]
O=C(Nc1ccccn1)c1cccc(S(=O)(=O)N2CCOCC2)c1 | inconclusive: 11.2 µM [activator, partial curve, poor fit]
O=C(c1cc(-c2ccco2)nc2ccccc12)N1CCN(c2ccc(F)cc2)CC1 | inconclusive: 39.8 µM [activator, single point]
OC[C@H]1CC[C@@H]2O[C@H](CCc3ccc(-c4ccc(F)cc4)cc3)[C@@H](n3cc(C4CC4)nn3)C[C@@H]2O1 | inconclusive: 39.8 µM [activator, single point]

Source: PubChem BioAssay AID1347120 (National Center for Advancing Translational Sciences (NCATS), 2019)
